# Laboratory results published in PubChem BioAssay AID485367 (National Center for Advancing Translational Sciences (NCATS), 2010).
# The campaign covered roughly 330,000 compounds. About 560 (0.17%) were called active. Inconclusive means that the source gave no clear call. Such entries were picked first, then a sample of the others. The call rests on the fitted dose curve; in most records, active means well fitted inhibition curve with a large enough effect; inconclusive means small, poorly fitted or top-dose-only effect, or effect the other way; inactive means flat fitted curve, though single readings scatter. No potency is given beside an inconclusive call; the fits are too rough.
# Target: ATP-dependent 6-phosphofructokinase (Trypanosoma brucei brucei) (UniProt O15648)
# Assay: qHTS Assay to Find Inhibitors of T. brucei phosphofructokinase; further: nearly all actives have a fitted effect of over 60% in size
# Settings: T. brucei PFK, ADP-Glo luminescence; series mostly up to 57.5 µM
# Summary of the method: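 Luminescent ADP detection (ADP-Glo, two-step: ATP depletion then ADP-to-ATP conversion for luciferase) reported PFK activity after 45 min room-temperature reaction of 1.25 nM enzyme with 0.5 mM F6P and 0.1 mM ATP at pH 8.0.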
# Potency means the concentration at half of the fitted maximal effect; tags describe the fitted curve by direction and shape.
# Sequence of UniProt O15648 (O15648 whole entry, looked up): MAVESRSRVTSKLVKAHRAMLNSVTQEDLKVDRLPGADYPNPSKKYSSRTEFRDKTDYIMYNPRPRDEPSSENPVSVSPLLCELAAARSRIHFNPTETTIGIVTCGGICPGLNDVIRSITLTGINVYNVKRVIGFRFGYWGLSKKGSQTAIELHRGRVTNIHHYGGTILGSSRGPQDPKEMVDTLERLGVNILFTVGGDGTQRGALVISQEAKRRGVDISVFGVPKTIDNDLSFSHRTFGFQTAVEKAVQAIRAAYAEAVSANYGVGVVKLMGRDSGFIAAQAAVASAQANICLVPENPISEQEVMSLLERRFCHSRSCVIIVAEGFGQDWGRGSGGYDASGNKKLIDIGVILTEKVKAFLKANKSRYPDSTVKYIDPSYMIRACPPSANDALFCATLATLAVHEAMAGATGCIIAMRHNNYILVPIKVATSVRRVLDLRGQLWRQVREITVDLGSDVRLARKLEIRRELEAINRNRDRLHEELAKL
row,SMILES,Potency
1,O=S(=O)(NCCCCNS(=O)(=O)c1c(F)cccc1F)c1ccc2c(c1)OCCO2,inactive
2,COCCNC(=O)CN(Cc1ccc2c(c1)OCO2)C(=O)CCC(=O)Nc1nccs1,inactive
3,CS(=O)(=O)c1ccc(C(=O)NCCN2C(=O)S/C(=C\c3cccnc3)C2=O)cc1[N+](=O)[O-],inactive
4,COC(=O)c1ccc(NC(=O)c2cccc(OC)c2)cc1,"inconclusive [falling, single point]"
5,COc1ccc(CCNC(=O)COc2ncnc3cc([N+](=O)[O-])ccc23)cc1,inactive
6,Cc1cc(Cl)ccc1N=c1ssnc1Cl,"inconclusive [falling, single point]"
7,COc1cc(O)c2c(c1)OC(C)(C)CC2=O,inactive
8,COc1ccccc1N1CCN(C(=O)c2ccccc2NC(=O)C2CCCCC2C(=O)O)CC1 (centres undefined),"inconclusive [falling, single point]"
9,CCOc1cc(C(=S)N2CCOCC2)ccc1O,"inconclusive [falling, full curve, poor fit]"
10,Fc1ccc(CNc2ncnc3cc(Cl)ccc23)cc1,active: 19 µM
11,COc1cc(/C=C/C(=O)OCC(=O)NC(=O)NCc2ccco2)ccc1OC(F)F,"inconclusive [falling, single point]"
12,CN(c1ccccc1)S(=O)(=O)c1cccc(NC(=O)CSc2nccc(=O)[nH]2)c1,"inconclusive [falling, single point]"
13,C#CCOCCOCCOCCNc1nc(N2CCN(C(=O)CCCCCCCCCCNC(=O)[C@H](CCCCN)n3cc(C)nn3)CC2)nc(N2CCN(C(=O)CCCCCCCCCCNC(=O)[C@@H]([C@H](C)CC)n3cc(CCCCCN)nn3)CC2)n1,"inconclusive [activator, single point]"
14,CC(C)(C)Cc1nnc(NC(=O)CSc2ccccc2)s1,"inconclusive [falling, partial curve]"
15,NS(=O)(=O)c1ccc(CNC(=O)/C=C/c2ccco2)cc1,"inconclusive [falling, single point]"
16,CC(=O)N1N=C(c2ccco2)CC1c1cc2cc(C)ccc2nc1Cl (centres undefined),inactive
17,O=C(Nc1ccc(N2CCCC2)cc1)c1cccc(-c2cc3ccccc3oc2=O)c1,"inconclusive [activator, single point]"
18,O=C(OCc1nc2scc(-c3ccccc3)c2c(=O)[nH]1)c1cc([N+](=O)[O-])ccc1Cl,"inconclusive [falling, single point]"
19,CS(=O)(=O)N1Cc2ccccc2CC1C(=O)OCC(=O)Nc1ccc2ccccc2c1 (centres undefined),"inconclusive [falling, partial curve]"
20,O=C(COC(=O)c1cc(=O)[nH]c2ccccc12)NCc1cccc(Cl)c1,inactive
21,CCOC(=O)c1c(C)[nH]c(C(=O)COC(=O)CCNS(=O)(=O)c2ccc(NC(C)=O)cc2)c1C,"inconclusive [falling, single point]"
22,S=C(NCCN1CCOCC1)N1CCN(c2cccc(Cl)c2)CC1,"inconclusive [falling, partial curve]"
23,CN(Cc1ccccc1)C(=O)CN1CCN(C(c2ccccc2)c2ccccc2)CC1,inactive
24,O=C(CCS(=O)(=O)c1ccc(Br)cc1)NCc1cccs1,"inconclusive [falling, single point]"
25,CCOC(=O)c1c(NC(=O)CSc2ncccn2)sc2c1CCN(Cc1ccccc1)C2,"inconclusive [falling, single point]"

row,SMILES,Potency
1,Cc1cc(C(=O)COC(=O)c2cc(Cl)c(O)c(Cl)c2)c(C)n1C,active: 16.9 µM
2,Oc1c(/C=N/c2ccccn2)sc2ccccc12,"inconclusive [falling, single point]"
3,CCCCc1nc(NCCNC(=O)c2ccccc2)c(C#N)c2c1CSC(C)(C)C2,inactive
4,O=C(OC1C2CCC1C1CN(CCc3ccccc3)CC12)c1ccccc1 (centres undefined),inactive
5,CCCNC(=O)C(=O)Nc1ccc(N(C)C)cc1,inactive
6,COCCNC(=O)c1ccc(NC(=O)C2(c3ccccc3)CCCC2)cc1,inactive
7,Cc1ccc2cc(C3CC(c4ccco4)=NN3C(=O)CCC(=O)O)c(Cl)nc2c1 (centres undefined),inactive
8,Cc1ccc(S(=O)(=O)Cc2ccc(C(=O)N3CCc4ccccc4C3)o2)cc1,"inconclusive [falling, single point]"
9,COc1ccc(CCC(=O)NCc2ccco2)cc1,"inconclusive [falling, single point]"
10,CCn1c(SCc2nc3sc(C(=O)O)c(C)c3c(=O)[nH]2)nnc1-c1ccc(Cl)cc1,inactive
11,Cc1ccc(/C=C/C(=O)OCC(=O)NC(=O)NCc2ccco2)cc1,"inconclusive [falling, single point]"
12,O=C(NC(=S)Nc1ccc(Br)c(Cl)c1)C1CC1,inactive
13,CCOC(=O)C1CCN(c2nc3ccccc3nc2C(C#N)C(=O)NCCc2ccccc2)CC1 (centres undefined),active: 9.53 µM
14,Cc1c(C)c2ccc(OCC(=O)Nc3ccc(S(N)(=O)=O)cc3)c(C)c2oc1=O,"inconclusive [falling, partial curve]"
15,OCCNc1nc2nonc2nc1NCCO,inactive
16,CC(C)(C)c1n[nH]c(=S)n(N)c1=O,"inconclusive [falling, single point]"
17,CCOC(=O)C1=C(N)OC2=C(C(=O)CC(C)(C)C2)C1c1cc(CSc2nnnn2C)cs1 (centres undefined),"inconclusive [activator, full curve]"
18,COc1ccc(-c2ccc(SCC(=O)NCc3ccco3)nn2)cc1OC,"inconclusive [falling, single point]"
19,O=C(c1ccc2n[nH]nc2c1)N1CCN(c2ccc(C(F)(F)F)cn2)CC1,inactive
20,c1ccc2c(c1)c1c3n2CCNC3CCC1 (centres undefined),"inconclusive [falling, single point]"
21,Clc1ccc(CN2C3=NCCN3c3ccccc32)cc1,active: 23.9 µM
22,COc1ccccc1N(C)S(=O)(=O)c1ccc(C(=O)Nc2ccc(N3CCOCC3)cc2)cc1,"inconclusive [falling, single point]"
23,O=C(Nc1ccc(Nc2ccncc2)cc1)c1ccc(Nc2ccnc3ccc([N+](=O)[O-])cc23)cc1,"inconclusive [activator, full curve, poor fit]"
24,CC(=O)c1cccc(OCC(=O)N(C)CC(=O)NCc2ccco2)c1,active: 19 µM
25,O=C1/C(=C/c2ccc(O)c(O)c2)Oc2cc(O)ccc21,"inconclusive [activator, partial curve]"

row,SMILES,Potency
1,FC(F)(F)C1=Nc2cccc3cccc(c23)N1,inactive
2,C=CCSC1=N/C(=C\C=C\c2ccco2)C(=O)S1,active: 16.9 µM
3,CCOC(=O)c1ccc(NC(=O)C23CCC(C)(C(=O)O2)C3(C)C)cc1 (centres undefined),inactive
4,O=c1c2cc(F)ccc2sn1-c1ccccc1,active: 6.75 µM
5,O=c1c2ccccc2sn1-c1nccs1,active: 8.49 µM
6,NC(=O)CCN1CCN(C(=O)c2ccc3nc(Cc4cccc(Cl)c4)oc3c2)CC1,"inconclusive [falling, partial curve]"
7,CCn1c2ccccc2c2cc(NC(=O)CSc3nnc(C4CC4)n3Cc3ccco3)ccc21,"inconclusive [falling, full curve]"
8,CCOC(=O)C1=C(C)N(c2ccccc2)C(=O)/C1=C\c1ccc(O)c(OC)c1,"inconclusive [falling, single point]"
9,O=C(COc1ccc2oc(-c3ccccc3)cc(=O)c2c1)NCc1ccco1,"inconclusive [falling, single point]"
10,CN(C)C(=O)c1ccc(Nc2nnc(-c3ccc(O)cc3)c3ccccc23)cc1,inactive
11,O=C(O)c1ccccc1C(=O)Nc1nccs1,inactive
12,O=C(O)Cc1ccc(NC(=O)C2CC=CCC2C(=O)O)cc1 (centres undefined),"inconclusive [falling, partial curve]"
13,Cc1ccc(C(=S)N2CCN(Cc3ccccc3)CC2)cc1,"inconclusive [falling, single point]"
14,CC(C)n1nc(C(=O)Nc2cccc(S(=O)(=O)N3CCCCC3)c2)c2ccccc2c1=O,"inconclusive [falling, single point]"
15,C/C(=N\NC(=S)Nc1ccc(F)cc1)C1CC1,"inconclusive [falling, single point]"
16,CNC(=S)N1CCN(c2ccc(Cl)c(Cl)c2)CC1,active: 26.9 µM
17,CN(CC(=O)NC(=O)NCc1ccco1)Cc1nc2ccccc2c(=O)[nH]1,"inconclusive [falling, full curve]"
18,S=c1[nH]nc(COc2ccc3ccccc3c2)o1,"inconclusive [activator, single point]"
19,COc1ccc(Nc2cc(C(=O)NCCCN3CCOCC3)c3ccccc3n2)cc1OC,"inconclusive [falling, single point]"
20,O=C(NNC(=S)NCc1ccccc1)c1cccnc1,"inconclusive [falling, single point]"
21,C=CCn1c(Cc2cccs2)nnc1SCC(=O)NCc1ccco1,"inconclusive [falling, single point]"
22,CN(C)c1ccc(NC(=S)c2ccc3ccccc3n2)cc1,"inconclusive [falling, full curve]"
23,COc1ccccc1-c1cn(-c2ccccc2)c(=S)[nH]1,"inconclusive [falling, partial curve]"
24,COc1cc2c(cc1NC(=O)c1cc(-c3ccncc3)nc3ccccc13)oc1ccccc12,"inconclusive [activator, partial curve, poor fit]"
